Assay results as given in patent US20250333508A1 (ZHEJIANG NANOMAB TECHNOLOGY CENTER, published 2025).

Experiments:
[1] = biological target: T1, PD-1. his tag protein (UniProt Q15116 fragment, limits assumed); test: ELISA, coated his-tagged protein
T1 construct: Bought (ACRO Biosystems); not shown: His tag

[2] = biological target: T2, ICOS. His tag (UniProt Q9Y6W8 21-140, limits assumed); test: ELISA, coated his-tagged protein
T2 construct: Bought (ACRO Biosystems); not shown: His tag
T2 sequence (looked up): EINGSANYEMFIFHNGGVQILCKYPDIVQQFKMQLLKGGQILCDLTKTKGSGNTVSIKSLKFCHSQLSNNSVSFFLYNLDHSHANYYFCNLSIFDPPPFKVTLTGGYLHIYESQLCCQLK

[3] = biological target: T3, murine CTLA-4. his tag protein (murine, UniProt P09793 36-161); test: ELISA, coated his-tagged protein
T3 construct: Bought (ACRO Biosystems); also called mouse CTLA-4; not shown: His tag

[4] = biological target: T4, CD28. His tag (UniProt P10747 19-152, limits assumed); test: ELISA, coated his-tagged protein
T4 construct: Bought (ACRO Biosystems); not shown: His tag
T4 sequence (P10747 19-152 limits assumed): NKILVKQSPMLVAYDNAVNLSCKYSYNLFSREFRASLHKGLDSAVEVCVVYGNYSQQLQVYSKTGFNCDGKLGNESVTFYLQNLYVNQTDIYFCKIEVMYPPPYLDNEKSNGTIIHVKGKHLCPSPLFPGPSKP

[5] = biological target: T5, human CTLA-4 his tag antigen (human, UniProt P16410 36-161); test: competition ELISA, coated CTLA-4.his, competitor biotinylated B7-1-Fc
T5 construct: Bought (ACRO Biosystems); also called CTLA-4. his tag protein (human); not shown: His tag
T5 sequence (looked up): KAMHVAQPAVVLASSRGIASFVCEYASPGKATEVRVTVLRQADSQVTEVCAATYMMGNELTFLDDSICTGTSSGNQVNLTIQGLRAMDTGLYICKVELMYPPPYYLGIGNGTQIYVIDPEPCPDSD

[6] = biological target: T5, human CTLA-4 his tag antigen; test: SPR, Ab on protein A, CTLA-4.his in flow
[7] = biological target: T5, human CTLA-4 his tag antigen; test: SPR, Ab on protein A, CTLA-4.His in flow
[8] = biological target: T5, human CTLA-4 his tag antigen; test: ELISA on coated human CTLA-4 his tag protein, goat anti-human IgG-Fc HRP; unit from the axis
[9] = biological target: T6, human CTLA-4 on HEK293T cells expressing CTLA-4 extracellular domain (human, UniProt P16410 36-161); test: flow cytometry competition on 293T cells overexpressing CTLA-4; blocked ligand biotin labeled B7-1; the IC50 table has no unit, unit taken from the concentration axis (text says nM and gives the three values to other antibodies)
T6 construct: extracellular domain
T6 sequence (looked up): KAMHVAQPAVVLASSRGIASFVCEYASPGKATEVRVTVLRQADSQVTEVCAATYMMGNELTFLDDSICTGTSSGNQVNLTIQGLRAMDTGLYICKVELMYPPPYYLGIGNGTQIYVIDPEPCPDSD

[10] = biological target: T6, human CTLA-4 on HEK293T cells …; test: flow cytometry competition on 293T cells overexpressing CTLA-4, competitor biotinylated B7-1-Fc
[11] = biological target: T3, murine CTLA-4. his tag protein; test: ELISA on coated mouse CTLA-4 his tag protein, goat anti-human IgG-Fc HRP; unit from the axis; no upper plateau within the range shown
[12] = biological target: T7, cynomolgus monkey CTLA-4. his tag protein (cynomolgus monkey, UniProt G7PL88 36-161); test: ELISA on coated cynomolgus monkey CTLA-4 his tag protein, goat anti-human IgG-Fc HRP; unit from the axis
T7 construct: Bought (ACRO Biosystems)
T7 sequence: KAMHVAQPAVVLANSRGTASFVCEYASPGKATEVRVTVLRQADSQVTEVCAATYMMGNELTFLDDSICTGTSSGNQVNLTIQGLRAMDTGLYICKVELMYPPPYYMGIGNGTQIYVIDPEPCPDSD

[13] = biological target: T6, human CTLA-4 on HEK293T cells …; test: flow cytometry on 293T cells overexpressing human CTLA-4; the EC50 table has no unit, unit taken from the concentration axis (text says nM)

T1 sequence (Q15116 25-167 limits assumed): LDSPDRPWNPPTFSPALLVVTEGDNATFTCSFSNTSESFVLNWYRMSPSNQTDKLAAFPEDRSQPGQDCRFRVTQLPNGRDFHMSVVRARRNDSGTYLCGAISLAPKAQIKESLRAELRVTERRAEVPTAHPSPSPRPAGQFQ

B1: NGS-12 (Fc fusion)
chain: QVQLVESGGGLVQPGGSLRLSCAVSGFSSDYYDIGWFRQDPEKEREMVSCIRSSGGSTKYADSVKGRFTISRDNAKNTVYLQMNSLEPEDTAVYYCGLAPISPVHAVCNQHYFGYWGQGTRVTVSS[skipping human IgG4 Fc with S228P (EU numbers)]
- binding result [1]: no binding (tested: OD450 < 0.3)
- binding result [2]: no binding (tested: OD450 < 0.3)
- binding result [3]: no binding (tested: OD450 < 0.3)
- binding result [4]: no binding (tested: OD450 < 0.3)
- IC50 [5]: 0.57 nM
- Kd [6]: 1.32 nM
- koff [6]: 0.00025 s⁻¹
- kon [6]: 190000 M⁻¹ s⁻¹
- Kd [7]: 1.32 nM
- koff [7]: 0.00025 s⁻¹

B3: NGS-16 (Fc fusion)
chain: QVQLVESGGGLVQPGGSLRLSCEASGGTLDYWSIGWFRQAPGKEREEVSCISGTGLRTNYADSVKGRFTVSRDNSRNSVILQMNSLKPEDTGVYYCTGKLLHPSLWSACANEYDLWGQGTQVTVSS[skipping human IgG4 Fc with S228P (EU numbers)]
- binding result [1]: no binding (tested: OD450 < 0.3)
- binding result [2]: no binding (tested: OD450 < 0.3)
- binding result [3]: no binding (tested: OD450 < 0.3)
- binding result [4]: no binding (tested: OD450 < 0.3)
- IC50 [5]: 2.28 nM
- Kd [6]: 0.42 nM
- koff [6]: 0.00037 s⁻¹
- kon [6]: 880000 M⁻¹ s⁻¹
- Kd [7]: 0.42 nM
- koff [7]: 0.00037 s⁻¹
- kon [7]: 880000 M⁻¹ s⁻¹

B5: NB-27-z5 (Fc fusion)
chain: EVQLVESGGGLVQPGGSLRLSCAASGSTLDPFVIGWFRQAPGKERETVACINRSRTSYADSVKGRFTISRDNSKNMVYLQMNSLRAEDTAVYYCAASPDKPFYTDQTMCNKHYYGYWTQGTQVTVSS[skipping human IgG4 Fc with S228P (EU numbers)]
notes: Format in the assay not restated
- EC50 [11]: 2.03 nM
- EC50 [12]: 0.191 nM

B6: NB-879 (Fc fusion)
chain: QVQLVESGGGLVQPGGSLRLSCASSGDTLESFAVGWFRQAPGKEREELACIGRTGEFTDYPGSVKGRFTITRDNAKNTVYLEMVNLKAEDTGVYYCAAERLVFHLCSLSEYDYDTWGQGTQVTVSS[skipping human IgG4 Fc with S228P (EU numbers)]
- binding result [1]: no binding (tested: OD450 < 0.3)
- binding result [2]: no binding (tested: OD450 < 0.3)
- binding result [3]: no binding (tested: OD450 < 0.3)
- binding result [4]: no binding (tested: OD450 < 0.3)
- IC50 [5]: 55.9 nM
- Kd [6]: 2.08 nM
- koff [6]: 0.000168 s⁻¹
- kon [6]: 80900 M⁻¹ s⁻¹
- Kd [7]: 14.4 nM
- koff [7]: 0.00133 s⁻¹
- kon [7]: 92700 M⁻¹ s⁻¹

B7: NGS-08 (Fc fusion)
chain: EVQLVESGGGLVQPGGSLRLSCVASGFTLDDHAIGWFRQAPGKAREGVSCISSSGRTTYLLSVKGRFTITRDNAKNTAYLQMNRLQPEDTAVYYCASVPTLGTACLMTHGMRSDWGQGTQVTVSS[skipping human IgG4 Fc with S228P (EU numbers)]
- binding result [1]: no binding (tested: OD450 < 0.3)
- binding result [2]: no binding (tested: OD450 < 0.3)
- binding result [3]: no binding (tested: OD450 < 0.3)
- binding result [4]: no binding (tested: OD450 < 0.3)
- IC50 [5]: 61.7 nM

Next, values leading:

- EC50 [8]: 0.0307 nM
- IC50 [9]: 2.37 µg/mL
- IC50 [10]: 2.6 nM
- EC50 [11]: 4.3 nM
- Kd [7]: 1.39 nM
- koff [7]: 0.00075 s⁻¹
- kon [7]: 540000 M⁻¹ s⁻¹
- EC50 [12]: 0.0389 nM
- EC50 [13]: 9.87 µg/mL
B2: NGS-12-z1 (Fc fusion)
chain: EVQLVESGGGLVQPGGSLRLSCAASGFSSDYYDIGWFRQAPGKEREMVSCIRSSGGSTKYADSVKGRFTISRDNSKNTVYLQMNSLRAEDTAVYYCGLAPISPVHAVCNQHYFGYWGQGTRVTVSS[skipping human IgG4 Fc with S228P (EU numbers)]
notes: as for B5

- EC50 [8]: 0.00292 nM
- IC50 [9]: 1.83 µg/mL
- IC50 [10]: 2.4 nM
- EC50 [11]: 9.64 nM
- Kd [7]: 0.559 nM
- koff [7]: 0.00038 s⁻¹
- kon [7]: 680000 M⁻¹ s⁻¹
- EC50 [12]: 0.00461 nM
- EC50 [13]: 7.8 µg/mL
B4: NGS-16-z2 (Fc fusion)
chain: EVQLVESGGGLVQPGGSLRLSCAASGGTLDYWSIGWFRQAPGKEREEVSCISGTGLRTNYADSVKGRFTISRDNSKNTVILQMNSLRAEDTAVYYCTGKLLHPSLWSACANEYDLWGQGTQVTVSS[skipping human IgG4 Fc with S228P (EU numbers)]
notes: as for B5

- binding result [1]: no binding (tested: OD450 < 0.3)
- binding result [2]: no binding (tested: OD450 < 0.3)
- binding result [3]: no binding (tested: OD450 < 0.3)
- binding result [4]: no binding (tested: OD450 < 0.3)
- IC50 [5]: 34.4 nM
B8: NGS-13 (Fc fusion)
chain: QVQLVESGGGLVQPGGSLRLSCAASGFTLDDQAIGWFRQAPGKEREGVACISSSGRGTYLLSVKGRFTVTRDNAKNTVYLQMNRLQPEDTAVYYCASVPAVQTMCLMTHASRDDWGQGTQVTVSS[skipping human IgG4 Fc with S228P (EU numbers)]

- binding result [1]: no binding (tested: OD450 < 0.3)
- binding result [2]: no binding (tested: OD450 < 0.3)
- binding result [3]: no binding (tested: OD450 < 0.3)
- binding result [4]: no binding (tested: OD450 < 0.3)
B9: NB-784 (Fc fusion)
chain: EVQLVESGGGLVQPGGSLRLSCAVSGLNFGIYDFTWGRQAPGKGLEWIATMNPDGDITNYVDSVKGRFTISRDNANESLYLQMNSLKPEDTALYYCALGPERYFSIYATRGQGTLVTVSS[skipping human IgG4 Fc with S228P (EU numbers)]

- binding result [1]: no binding (tested: OD450 < 0.3)
- binding result [2]: no binding (tested: OD450 < 0.3)
- binding result [3]: no binding (tested: OD450 < 0.3)
- binding result [4]: no binding (tested: OD450 < 0.3)
B10: BMK2 (Fc fusion)
chain: QVQLVESGGGLVQPGGSLRLSCAASGYIYSAYCMGWFRQAPGKGLEGVAAIYIGGGSTYYADSVKGRFTISRDNSKNTLYLQMNSLRAEDTAVYYCAADVIPTETCLGGSWSGPFGYWGQGTLVTSS[skipping human IgG4 Fc with S228P (EU numbers)]

One block for each binder: values may come before it.
